Laboratory results from the supplement of paper PMC3334620.
The full ranking holds about 33,000 sequences; the median of “E-score (-0.5 to 0.5)” is about -0.012, and the highest 2% start at about 0.29. The list shows a part of the results.

biological target: T1, Ybr033w (UniProt P38073); assay: PBM E-score (8-mer binding enrichment) (E-score (-0.5 to 0.5)); higher = stronger / more preferred TF binding; most listed sequences are background and not binding sites; details: protein concentration: 200 nM; construct: GST-full length
T1 sequence: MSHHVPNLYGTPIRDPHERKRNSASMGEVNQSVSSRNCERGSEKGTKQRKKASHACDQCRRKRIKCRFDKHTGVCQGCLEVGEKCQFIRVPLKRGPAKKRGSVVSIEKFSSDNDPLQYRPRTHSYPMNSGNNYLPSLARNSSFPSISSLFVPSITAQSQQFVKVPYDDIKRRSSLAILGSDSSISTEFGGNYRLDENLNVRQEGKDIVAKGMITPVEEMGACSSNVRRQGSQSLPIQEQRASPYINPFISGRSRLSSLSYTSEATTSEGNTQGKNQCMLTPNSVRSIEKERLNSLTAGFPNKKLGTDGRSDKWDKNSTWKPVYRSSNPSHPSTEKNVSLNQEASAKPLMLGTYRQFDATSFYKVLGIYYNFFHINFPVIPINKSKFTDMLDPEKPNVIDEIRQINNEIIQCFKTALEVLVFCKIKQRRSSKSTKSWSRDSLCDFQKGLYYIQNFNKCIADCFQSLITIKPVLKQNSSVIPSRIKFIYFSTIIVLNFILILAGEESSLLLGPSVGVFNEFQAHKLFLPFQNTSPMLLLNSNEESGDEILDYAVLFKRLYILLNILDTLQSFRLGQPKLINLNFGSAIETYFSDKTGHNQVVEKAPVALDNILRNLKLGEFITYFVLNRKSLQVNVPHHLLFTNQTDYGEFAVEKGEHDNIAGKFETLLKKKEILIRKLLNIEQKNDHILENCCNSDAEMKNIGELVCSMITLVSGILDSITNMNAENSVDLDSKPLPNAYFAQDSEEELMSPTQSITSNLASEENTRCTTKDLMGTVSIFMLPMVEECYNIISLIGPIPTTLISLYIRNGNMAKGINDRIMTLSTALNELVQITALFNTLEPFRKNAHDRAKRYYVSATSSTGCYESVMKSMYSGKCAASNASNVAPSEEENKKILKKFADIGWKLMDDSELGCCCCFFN
Summary of the method: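 Detection of bound protein used fluorescent anti-GST, with scans normalised by masliner. The proteins were GST-tagged yeast transcription factors applied at about 100-200 nM to universal all-10-mer Agilent arrays made double-stranded by primer extension. Each ungapped eight-base word, pooled with its reverse complement, was scored with an E-score from the Universal PBM Analysis Suite.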

Sequence	PBM E-score
CATAATCG	0.0532
AAGAGGTG	-0.0113
CTACCGCA	-0.0903
ACTCTAAA	0.196
CTGAAGTC	0.0388
AGCGCGCT	0.0295
GCTTGCCA	-0.0433
TCGGCGAA	-0.0967
ACTACTAG	0.168
AGGTATTA	0.208
AGAAGTCC	-0.166
CCGGCCGG	-0.109
CTGAACGC	-0.0953
CAATACGC	0.0249
AGGTGAGG	-0.0581
GCCCTGCC	-0.33
CCCGGCAA	-0.0779
GCATCACC	-0.281
TTCCTAAA	0.107
GGTGACAA	0.114
AACCTATA	0.24
AGCTGGTC	-0.0648
CGTCTAAG	-0.142
CCAAGACG	-0.057

Sequence	PBM E-score
ACTGTCCA	-0.00789
CTTGTCGA	-0.0906
ACCTGGAT	-0.154
TATCGATA	0.083
AGCCTAAG	-0.204
ACGCGTAT	0.0786
GGAGTAGA	-0.00378
ATCGACAG	-0.0467
GTTGTCTA	-0.0018
CACACAGA	0.0801
CTTGCACA	-0.0229
AATGAGGG	-0.119
GACAAAGC	-0.0281
CCCACGTC	-0.139
CGCGGCAG	-0.0822
ACCTATCT	0.105
AGCCCGAC	-0.0804
ACTGTTTC	0.0333
GATCGAGC	-0.00942
GACCCCTA	-0.28
CAGTTCCG	-0.0393
ATAAGCGC	0.0585
ATGAGTCC	-0.0465
AAATTTGG	0.0261

Sequence	PBM E-score
GCCAGTCC	-0.261
AGAGCCAT	-0.137
AGACCCCG	-0.142
CTGCACTC	-0.174
CGTCGAAC	-0.0544
AGACAAAC	-0.0158
CTAGTGGC	-0.104
AACAGGTA	0.126
AATAGGCC	0.0592
CTACCGAG	-0.167
ACATGCAG	-0.104
CTTTAATA	0.227
CCTCGACC	-0.256
CTCAGCGA	0.00451
AGCAAGCC	-0.126
AAGCGTGA	-0.108
CCGGATGA	0.289
AGTGGTCA	-0.103
ATGAGGTC	-0.0418
CAAACGAA	0.0948
AACAAACT	0.341
CCACCCGG	-0.149
ACTCAAAG	0.127
CCCAGTCA	-0.298

Sequence	PBM E-score
CCGGATCC	-0.129
AAGGGAGC	-0.235
ACCTGAAA	-0.00483
CAGCGGTC	-0.271
ACTTCCGG	0.117
GATAAAGC	0.159
AAGCATGT	0.159
GTAGTCGA	0.0214
AGTACATG	0.0488
GGGTGTAC	-0.134
ACCTGACA	0.00926
ACTATGTG	0.0259
ATTACTGG	-0.0266
GCACCTTA	-0.063
CAGGATTC	-0.0774
ACAGTCTC	-0.156
CGCGAAGC	0.0254
CGATCACG	0.103
CGGCCACG	-0.165
AGCGCAGG	-0.12
ACTTAGAG	-0.0868
CAGCAGGC	-0.0664
